Some of the results follow.

In the test the test system is HSkMC (human skeletal muscle cells). In words: cytotoxicity call (relative viability < 0.9). The following applies: 10 µM.
`C[C@@H]1CCCCO[C@H](CN(C)Cc2ccc(C(F)(F)F)cc2)[C@@H](C)CN([C@@H](C)CO)C(=O)c2cc(NC(=O)Nc3ccc(F)cc3)ccc2O1`: the cytotoxicity call was “inactive”. The same measure for `C[C@@H]1CN([C@H](C)CO)C(=O)c2cccc(NC(=O)C3CCOCC3)c2O[C@@H]1CN(C)Cc1ccc(C(=O)O)cc1`: “inactive”; for `C[C@H](CO)N1C[C@H](C)[C@H](CN(C)C(=O)Nc2ccc(C(F)(F)F)cc2)Oc2c(NC(=O)C3CCCCC3)cccc2C1=O`: “inactive”. The same measure for `C[C@H](CO)N1C[C@H](C)[C@H](CN(C)Cc2cncnc2)Oc2cc(C3=CCCCC3)ccc2S1(=O)=O`: “inactive”; for `C[C@H]1CN([C@@H](C)CO)C(=O)c2cc(NS(=O)(=O)c3ccccc3)ccc2O[C@@H]1CN(C)Cc1ccc(Oc2ccccc2)cc1`: “inactive”; for `C[C@@H]1CN([C@H](C)CO)C(=O)c2cc(NC(=O)c3ccccc3)ccc2O[C@@H](C)CCCCO[C@@H]1CN(C)S(=O)(=O)c1ccc(F)cc1`: “inactive”. The same measure for `CO[C@@H](CN(C)C(=O)c1ccc2c(c1)OCO2)[C@H](C)CN([C@@H](C)CO)S(=O)(=O)c1ccc(C)cc1`: “inactive”; for `C[C@@H]1CCCCO[C@@H](CN(C)S(=O)(=O)c2ccc(F)cc2)[C@H](C)CN([C@@H](C)CO)C(=O)c2cc(NC(=O)CCC(F)(F)F)ccc2O1`: “inactive”. Regarding `Cc1noc(C)c1NC(=O)N(C)C[C@@H]1OCCCC[C@@H](C)Oc2ccc(NC(=O)c3ccccc3)cc2C(=O)N([C@H](C)CO)C[C@@H]1C`, the cytotoxicity call was “inactive”. The same measure for `C[C@@H]1CN([C@@H](C)CO)C(=O)c2cccc(NC(=O)Nc3ccc(F)cc3)c2O[C@H]1CN(C)S(=O)(=O)c1cn(C)cn1`: “inactive”. With `C/C=C/c1cccc(-c2nc(C(=O)NCc3ccc(OC)cc3)cc3c2[C@@H](CCO)N([S@@](=O)C(C)(C)C)C3)c1`, the cytotoxicity call was “inactive”. Next, `COc1ccccc1CN1C(=O)c2ccccc2[C@](Cc2ccccc2I)(C(=O)NC2CC2)[C@@H]1c1ccc(CO)cc1`: “inactive”; `CO[C@H]1CN(C)C(=O)c2ccc(NS(=O)(=O)c3ccccc3C)cc2OC[C@@H](C)N(S(C)(=O)=O)C[C@@H]1C`: “inactive”; `O=c1[nH]cccc1F`: “inactive”. Next, `CC1(C)OC2CC3C4CCC5=CC(=O)C=CC5(C)C4C(O)CC3(C)C2(C(=O)CO)O1` (stereo unspecified): “inactive”; `CCOC(=O)[C@H]1CCCCN1`: “inactive”. The same measure for `CCCC(=O)Nc1ccc2c(c1)C(=O)N(C)C[C@@H](OC)[C@H](C)CN(Cc1ccc(-c3ccccn3)cc1)[C@@H](C)CO2`: “inactive”; for `O=C1CCCN1C[C@H]1CCCNC1`: “inactive”. `C[C@@H]1CN([C@@H](C)CO)C(=O)c2cc(NC(=O)Nc3cccc4ccccc34)ccc2O[C@@H]1CN(C)Cc1ccc(C(=O)O)cc1`: the cytotoxicity call is “inactive”. The same measure for `COc1ccc(NC(=O)N(C)C[C@@H]2Oc3c(NC(=O)CCCCCC(=O)Nc4ccccc4N)cccc3C(=O)N([C@H](C)CO)C[C@H]2C)cc1`: “inactive”; for `Cc1noc(C)c1S(=O)(=O)Nc1ccc2c(c1)CC(=O)N([C@@H](C)CO)C[C@@H](C)[C@@H](CN(C)Cc1ccc(Oc3ccccc3)cc1)O2`: “inactive”; for `O=C(O)c1cn(C2CC2)c2cc(N3CCNCC3)c(F)cc2c1=O`: “inactive”.

`Cc1noc(C)c1S(=O)(=O)Nc1ccc2c(c1)CC(=O)N([C@H](C)CO)C[C@@H](C)[C@H](CN(C)S(C)(=O)=O)O2`: the cytotoxicity call is “inactive”. The same measure for `COc1ccc(S(=O)(=O)Nc2ccc3c(c2)C(=O)N([C@H](C)CO)C[C@@H](C)[C@@H](CN(C)S(=O)(=O)c2cn(C)cn2)OCCCC[C@H](C)O3)cc1`: “inactive”; for `C[C@H]1CCCCO[C@H](CN(C)C(=O)CCC(F)(F)F)[C@@H](C)CN([C@@H](C)CO)C(=O)c2cc(NC(=O)c3ccccc3)ccc2O1`: “inactive”; for `COC(=O)c1cn(CC(N)=O)c2ccccc12`: “inactive”.

Turning to `COc1cc(OC)c(C(C)=O)c(O)c1C`, the cytotoxicity call was “inactive”. The same measure for `CCCN1C(=O)[C@@]2(c3ccc([N+](=O)[O-])cc3)CC(=O)N(CC34CC5CC(CC(C5)C3)C4)[C@@H]2c2ccc(CO)cc21`: “inactive”; for `COc1ccc(S(=O)(=O)Nc2ccc3c(c2)CC(=O)N([C@@H](C)CO)C[C@@H](C)[C@@H](CN(C)S(C)(=O)=O)O3)cc1`: “inactive”; for `COc1ccc(OC)c(S(=O)(=O)NC(=O)[C@@]2(C)CCN2C(=O)Cc2ccc(Cl)cc2Cl)c1`: “inactive”. Next, `CN1C(=O)c2cc(NC(=O)C3CCOCC3)ccc2OC[C@H]2O[C@H](CC(=O)NCCc3ccncc3)CC[C@@H]21`: “inactive”.

(Values after the antibiotic and cytotoxicity screens of Wong et al. (2023).)
